{"source": "PubChem BioAssay AID624172", "about": "(National Center for Advancing Translational Sciences (NCATS), 2012)", "note": "Out of some 380,000 compounds screened, about 25 (0.007%) were called active. The shares of active, inactive and inconclusive entries below differ from those in the screen. Calls follow the shape of the dose curve; as a rule, active = well fitted activation curve with a large enough effect; inconclusive = small, poorly fitted or top-dose-only effect; inactive = no such curve, though single readings can be large or run the other way. Potencies of inconclusive entries are left out as doubtful fits. Potency is read from the fitted curve at half-maximal effect; tags tell the direction and shape of the fitted curve.", "data": [{"biological_target": "Glucagon-like peptide 1 receptor (Homo sapiens) (UniProt P43220)", "sequence (P43220 whole entry, looked up)": "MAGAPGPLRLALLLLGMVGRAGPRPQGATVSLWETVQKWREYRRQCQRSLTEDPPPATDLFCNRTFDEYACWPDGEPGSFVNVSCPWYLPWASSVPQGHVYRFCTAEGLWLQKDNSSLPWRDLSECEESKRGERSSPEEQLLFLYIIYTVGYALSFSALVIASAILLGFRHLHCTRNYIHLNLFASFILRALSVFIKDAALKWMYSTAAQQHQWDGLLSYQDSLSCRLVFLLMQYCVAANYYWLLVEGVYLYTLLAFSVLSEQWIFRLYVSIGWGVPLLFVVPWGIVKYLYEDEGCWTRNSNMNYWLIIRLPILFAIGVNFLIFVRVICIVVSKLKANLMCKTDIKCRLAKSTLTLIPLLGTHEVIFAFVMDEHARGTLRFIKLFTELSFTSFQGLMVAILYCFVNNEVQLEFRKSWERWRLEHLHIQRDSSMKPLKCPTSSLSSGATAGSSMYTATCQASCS", "assay": "qHTS of GLP-1 Receptor Agonists; as to activation: % of control where 0% means no effect", "conditions": "HEK293 GLP-1R CRE-luciferase, luminescence, 4-6 h, cells express a hypersensitive GLP-1R form; activation: at 45.6 µM (top of the series) unless noted", "values": [{"smiles": "O=C(c1ccc(Br)o1)N(Cc1ccccc1)c1ccccn1", "activation": "inconclusive: 36.9% [activator]"}, {"smiles": "COc1cccc(-c2cnc3c(NC(C)=O)cc(-c4ccc(OC)c(OC)c4)cn23)c1", "Potency": "inconclusive [activator, partial curve]"}, {"smiles": "COc1ccc(-c2csc(C(C)(NC(C)=O)c3ccccc3)n2)cc1", "note": "(stereo unspecified)", "Potency": "inconclusive [activator, partial curve]"}, {"smiles": "COc1ccc(Cn2c(N)c(C#N)c3nc4ccccc4nc32)cc1OC", "Potency": "inconclusive [activator, full curve, poor fit]"}, {"smiles": "Cc1cc(C)n(Cc2ccc(C(=O)Nc3cccc(Br)c3)o2)n1", "Potency": "inconclusive [activator, partial curve, poor fit]"}, {"smiles": "c1coc(Cn2c(-c3ccco3)nc3ccccc32)c1", "Potency": "inconclusive [activator, single point]"}, {"smiles": "CCOc1ccc(-c2cc(C(=O)NCc3cc(C(F)(F)F)cc(C(F)(F)F)c3)[nH]n2)c(C)c1", "Potency": "inconclusive [activator, partial curve, poor fit]"}, {"smiles": "O=C(NC1CCCC1)C(c1ccccc1F)N(C(=O)Cc1cccs1)c1ccc2c(c1)OCCO2", "note": "(stereo unspecified)", "activation": "inactive: 4.24%"}, {"smiles": "COc1cccc(NC(=S)N2CCCN(Cc3ccc(F)cc3)C2)c1", "activation": "inactive: 15.7%"}, {"smiles": "FC(F)(F)c1cc(Sc2ccccc2)nc(-c2ccccn2)n1", "Potency": "inconclusive [activator, single point]"}, {"smiles": "CCc1ccc(CNc2ccc3c(c2)ncn3C(C)(C)C)cc1", "Potency": "inconclusive [activator, partial curve, poor fit]"}, {"smiles": "Nc1nc(CCl)nc(N(c2ccccc2)c2ccccc2)n1", "Potency": "inconclusive [activator, single point]"}, {"smiles": "Cc1cc(-c2ccc(C)c(S(=O)(=O)NCCCN3CCN(c4ccccc4F)CC3)c2)on1", "activation": "inactive: 5.59%"}, {"smiles": "CCOc1ccc2c(c1)-c1c(ssc1=S)C(C)(C)N2", "Potency": "inconclusive [activator, single point]"}, {"smiles": "CCN(CCO)c1ncnc2c1sc1nc(C(C)C)c3c(c12)CC(C)(C)OC3", "Potency": "inconclusive [activator, partial curve, poor fit]"}, {"smiles": "COc1cc2c(cc1OC)CN(c1ccc(F)cc1[N+](=O)[O-])CC2", "Potency": "inconclusive [activator, partial curve, poor fit]"}, {"smiles": "COC(=O)c1ccc(CSc2nc(N)cc(N)n2)cc1", "Potency": "inconclusive [activator, partial curve, poor fit]"}, {"smiles": "COC(=O)c1sc(N)c(C(=O)OC)c1COC(=O)c1c(C)noc1C", "activation": "inactive: 13.4%"}, {"smiles": "CCc1ccc(-c2nn(-c3ccc(OC)cc3)c3c2cnc2ccc(OC)cc23)cc1", "activation": "inactive: -0.386%"}, {"smiles": "CCOc1ccccc1C(=O)NCCCCNC(=O)c1ccccc1OCC", "Potency": "inconclusive [activator, partial curve, poor fit]"}, {"smiles": "Cc1cc(OCC(=O)OC(C)C(=O)Nc2ccc(N3CCOCC3)cc2)ccc1Cl", "note": "(stereo unspecified)", "activation": "inactive: 10.2%"}, {"smiles": "N#Cc1c(SCC(N)=O)nsc1SCc1ccccc1Cl", "Potency": "inconclusive [activator, single point]"}, {"smiles": "COc1cc(-c2nnc(SCc3ccccc3Cl)o2)cc(OC)c1OC", "Potency": "inconclusive [activator, partial curve]"}, {"smiles": "O=C(NNC(=O)c1cc(-c2ccco2)nc2ccccc12)c1ccccc1", "activation": "inactive: 9.56%"}, {"smiles": "CCOC(=O)C1=C(COC(=O)/C=C/c2cccc([N+](=O)[O-])c2)NC(=O)NC1C", "note": "(stereo unspecified)", "Potency": "inconclusive [activator, partial curve, poor fit]"}, {"smiles": "O=C(CCCN1CCN(c2ccccn2)CC1)c1ccc(F)cc1", "Potency": "inactive"}, {"smiles": "O=S(=O)(Nc1ccc2c(c1)OCCO2)c1ccc2oc3ccccc3c2c1", "Potency": "inconclusive [activator, partial curve, poor fit]"}, {"smiles": "Cc1cc(=O)n2[nH]c(CCC(=O)O)nc2n1", "activation": "inactive: 7.96%"}, {"smiles": "COc1c2c(cc3oc(=O)ccc13)OC(C)(C)C=C2", "Potency": "inconclusive [activator, single point]"}, {"smiles": "CCN(CC)CCNC(=O)c1ccc(NC(=O)c2ccc(Cl)c(S(=O)(=O)N3CCCCCC3)c2)cc1", "Potency": "inconclusive [activator, partial curve, poor fit]"}, {"smiles": "COc1ccc(C2CC(c3cccs3)=NN2C(=O)COC(=O)c2cncc(Br)c2)cc1OC", "note": "(stereo unspecified)", "activation": "inconclusive: 54.9% [activator]"}, {"smiles": "CCOC(=S)SSC(=S)OCC", "activation": "inactive: 9.05%"}, {"smiles": "COc1ccc(CCNC(=O)CCn2c(=O)oc3ccccc32)cc1OC", "Potency": "inconclusive [activator, full curve, poor fit]"}, {"smiles": "Cc1nn(-c2ccccc2)c(N)c1N=Nc1cccc(S(=O)(=O)N2CCOCC2)c1", "Potency": "inconclusive [activator, partial curve, poor fit]"}, {"smiles": "Cc1ccc(CNc2ccc3c(c2)ncn3C(C)C)cc1", "Potency": "inconclusive [activator, partial curve, poor fit]"}, {"smiles": "CCn1cc(C(=O)N(C)Cc2ccccc2)c(=O)c2cc(S(=O)(=O)N3CCc4ccccc4C3)ccc21", "activation": "inactive: -3.41%"}, {"smiles": "COc1ccc(-c2cc(N3C(=O)Nc4ccccc4N3O)n[nH]2)cc1", "Potency": "inconclusive [activator, full curve]"}, {"smiles": "COCCn1c(SCC(=O)Nc2cc(Cl)ccc2OC)nc2c([nH]c3ccccc32)c1=O", "activation": "inactive: 4.41%"}, {"smiles": "CCc1ccc(NC(=O)CSc2nnc(CNC(=O)c3cccs3)o2)cc1", "activation": "inactive: 0.238%"}, {"smiles": "CCN(CC)C(=O)c1ccc2c(=O)n(CCOC)c(=S)[nH]c2c1", "activation": "inactive: -9.84%"}, {"smiles": "CSCCC(NC(=O)c1occc1C)C(=O)O", "note": "(stereo unspecified)", "activation": "inactive: -11.7%"}, {"smiles": "COc1ccc(-c2csc(Nc3ncccc3C)n2)cc1OC", "Potency": "inconclusive [activator, full curve]"}, {"smiles": "Cc1ccc(C#N)c(SCc2nnc(-c3ccc(Cl)cc3)o2)n1", "activation": "inactive: -14.9%"}, {"smiles": "CCC(=O)Nc1ccc(S(=O)(=O)Nc2ccccn2)cc1", "activation": "inactive: 7.54%"}, {"smiles": "CCCOCc1ccc(O)c2ncccc12", "activation": "inactive: 4.67%"}, {"smiles": "CC(C)Cn1cnc2c(SCc3ccccc3F)nc(N)nc21", "Potency": "inconclusive [activator, single point]"}]}]}
